Reference: PubChem BioAssay AID624296 (National Center for Advancing Translational Sciences (NCATS), 2012)
Where “and” joins values, the source holds several entries; their conditions need not be identical. Equal entries are not always repeated. Out of some 350,000 compounds screened, about 9,900 (2.8%) were called active. This list was built around the results that the source calls inconclusive (neither active nor inactive); the mix of calls is not that of the screen. The call rests on the fitted dose curve; in most records, active means well fitted activation curve with a large enough effect; inconclusive means small, poorly fitted or top-dose-only effect; inactive means no such curve, though single readings can be large or run the other way. Potencies beside an inconclusive call are fits to weak or partial responses and may not hold up.

Test: A quantitative high throughput screen for small molecules that induce DNA re-replication in MCF 10a normal breast cells. Further: nearly all actives have a fitted effect of over 50% in size. On activity, positive = re-replication: % of control where 0% means no effect.
Conditions: MCF 10A DNA re-replication, Hoechst nuclear intensity, 48 h; activity, positive = re-replication: at 46.1 µM (top of the series)
Potency means the concentration at half of the fitted maximal effect; tags describe the fitted curve by direction and shape.

SMILES	Potency	activity, positive = re-replication
COC(=O)c1sc(N(C)C)c(C#N)c1-c1ccccc1	inconclusive: 18.4 µM [activator, single point]	
Cc1ccc(C(=O)NCc2ccco2)cc1Br	inactive	
CN(C)S(=O)(=O)N1CCc2ccc(NC(=O)c3ccc(C(F)(F)F)cc3)cc2C1	inactive	
COc1ccc(CCNC(=S)N2CCC(Cc3ccccc3)CC2)cc1OC	inconclusive: 29.1 µM [activator, single point]	
COc1ccccc1NC(=S)N/N=C/c1ccc(O)cc1	inactive	
N=c1c(C(=O)NC2CCCCC2)cc2c(=O)n3ccccc3nc2n1CC1CCCO1 (configuration not stated)	inconclusive: 1.84 µM [activator, partial curve, poor fit]	
Cn1c(N)c(-c2ccccc2)c2ccc([N+](=O)[O-])cc2c1=O	inconclusive: 29.1 µM [activator, single point]	
CCn1ccc(C(=O)Nc2sc3c(c2C(=O)OC)CCC3)n1	inconclusive: 18.4 µM [activator, single point]	
NC(=O)[C@@H]1CCCNc2c(I)cc([N+](=O)[O-])cc2C(=O)N[C@@H](CO)C(=O)N[C@@H](Cc2ccc(O)cc2)C(=O)N1	inconclusive: 7.31 µM [activator, partial curve, poor fit]	
Cc1ccc(-c2cc(C(F)F)nc(NCc3cccnc3)n2)cc1	inconclusive: 18.4 µM [activator, single point]	
COC(=O)[C@H](Cc1ccccc1)NC(=O)[C@@H]1C[C@H]1[C@@H](NC(=O)OCc1ccccc1)c1ccccc1	inconclusive: 16.4 µM [activator, single point]	
CCn1c2ccccc2c2cc(NC(=O)c3cccc(OC)c3)ccc21	inconclusive: 5.01 µM [activator, single point]	
CC(=O)OC1OCCOC1NC(=S)Nc1ccc(C)cc1 (configuration not stated)	inactive	
Cc1cc2nc(CCN(C(=S)NCC(C)C)C3CCCC3)[nH]c2cc1C	inactive	
Cc1ccc(NC(=O)C2CCCNC2=O)nc1 (configuration not stated)	inconclusive: 7.31 µM [activator, partial curve, poor fit]	
Cc1ccc(NC(=O)C2=COCCO2)cc1S(=O)(=O)N1CCOCC1	inactive	
COc1ccc(N(C(=O)c2snc(C(N)=O)c2N)C(C(=O)NC2CCCC2)c2ccc(C)o2)c(OC)c1 (configuration not stated)	active: 20.6 µM	
CSc1nc2cc(C)nn2c(-c2ccccc2Cl)c1C#N	inactive	
Nc1nc(Cl)nc2c1ncn2[C@@H]1O[C@H](CO)[C@@H](O)[C@H]1O	inconclusive: 29.1 µM [activator, single point]	
O=C(Nc1cccnc1)Nc1ccc(Br)cc1Cl	inconclusive: 18.4 µM [activator, single point]	
O=C(CCl)NCCCCCCCCCNC(=O)CCl	inconclusive: 20.6 µM [activator, single point]	
S=c1[nH]cnc2scc(-c3ccc(Cl)cc3)c12	inconclusive: 6.51 µM [activator, single point]	
COc1cc(CN2CCCC(CO)(Cc3cccc(Cl)c3)C2)cc2c1OCO2 (configuration not stated)	inactive	
COC(=O)c1ccccc1NCC(=O)c1ccc(OC)cc1	inconclusive: 29.1 µM [activator, single point]	

SMILES	Potency	activity, positive = re-replication
O=c1[nH]c2ccccc2n1CCCN1CCN(C(c2ccccc2)c2ccccc2)CC1	inconclusive: 26.6 µM [activator, partial curve, poor fit] and inconclusive: 29.1 µM [activator, single point]	
COc1ccc(CC(C#N)(CO)c2nc3ccccc3[nH]2)cc1 (configuration not stated)	inactive	
Cc1ccc(NC(=O)C2CCCN(S(=O)(=O)c3c(C)noc3/C=C/N(C)C)C2)cc1F (configuration not stated)	inconclusive: 20.6 µM [activator, single point]	
CCOC(=O)c1c(N)sc(C(O)(C(F)(F)F)C(F)(F)F)c1-c1ccccc1	inconclusive: 23.1 µM [activator, single point]	
O=C(CSc1ncnc2c1cnn2-c1ccccc1)NC1CCS(=O)(=O)C1 (configuration not stated)	inactive	
COc1ccc(OC)c(C2CC(c3ccc(NS(C)(=O)=O)cc3)=NN2C(=O)c2ccccc2)c1 (configuration not stated)	inactive	
COc1cccc(C(=O)N/N=C(/c2ccccc2)c2ccccn2)c1	inconclusive: 25.1 µM [activator, single point]	
CCOc1ccc(N(Cc2ccc(OC)cc2)C(=O)c2ccco2)cc1	inactive	
CC1=NN(c2ccc(Cl)cc2)C(=O)C1	inconclusive: 32.6 µM [activator, single point]	
COc1ccc(/C=N/n2c(N)c(S(=O)(=O)c3cccs3)c3nc4ccccc4nc32)cc1OC	inconclusive: 14.6 µM [activator, partial curve]	
Cc1ccccc1CSCC(=O)Nc1ccccc1F	inactive	
Cc1c(NS(=O)(=O)c2cccc(C(=O)OCC(=O)c3ccc(Cl)cc3)c2)c(=O)n(-c2ccccc2)n1C	inactive	
COc1ccc(S(=O)(=O)N(CC(=O)Nc2ccc3c(c2)OCO3)c2ccccc2OC)cc1	inconclusive: 29.1 µM [activator, single point]	
C=CC(=O)Nc1cccc(Oc2ccnc(Nc3ccc(N4CCN(C)CC4)cc3)n2)c1	active: 18.4 µM	
Cn1c(SCc2ccccc2)nc2ccsc2c1=O	inconclusive: 14.6 µM [activator, partial curve, poor fit]	
O=[N+]([O-])c1ccccc1S(=O)(=O)Nc1cccc2cccnc12	inconclusive: 4.61 µM [activator, partial curve, poor fit]	
CCC1(C)Cc2c(sc3nc4n(c(=O)c23)CCCS4)CO1 (configuration not stated)	inactive	
CC1CCN(C2CC(=O)N(c3ccccc3)C2=O)CC1 (configuration not stated)	inconclusive: 25.9 µM [activator, partial curve, poor fit]	
O=C(N/N=C/C1CCCCC1)c1ccccc1-n1cccc1	inconclusive: 2.06 µM [activator, partial curve]	
COc1cccc(C(=O)Nc2ccc(N3CCN(S(C)(=O)=O)CC3)cc2)c1	inconclusive: 29.1 µM [activator, single point]	
COC(=O)c1ccc(Oc2cc(C)nc(Cl)n2)cc1	inactive	
CCOc1ccc(N(CC(=O)NCCc2ccc(Cl)cc2)S(=O)(=O)c2c(C)[nH]c(=O)[nH]c2=O)cc1	inactive	
CCNc1oc(/C=C/c2ccc(OCC)cc2)nc1C#N	active: 2.59 µM	
Cc1ccc(NC(=S)N(Cc2ccccc2)Cc2cccs2)c(C)c1	inactive	

SMILES	Potency	activity, positive = re-replication
CCCCNS(=O)(=O)c1ccc2nc(SCC(N)=O)[nH]c2c1	inactive	
O=C1Nc2ccccc2C12OCCO2	inconclusive: 6.51 µM [activator, single point]	
Cc1nc(N)[nH]c(=O)c1CCCNc1ccc(CCCCC2(CCl)OCCO2)cc1	inconclusive: 14.6 µM [activator, single point]	
Cc1cccc(NC(=O)CSc2nnc(CSc3nc(C)cc(C)n3)o2)c1	inactive	
Cn1c(=N)c(S(=O)(=O)c2ccccc2)cc2c(=O)n3ccccc3nc21	active: 18.4 µM	
CCCC(=O)Nc1nn(CC)c2nc3ccc(C)cc3cc12	inconclusive: 32.6 µM [activator, partial curve, poor fit]	
COc1ccc(N2C(=O)C3C(C2=O)C(C(=O)c2ccccc2)N2CCCC32)cc1 (configuration not stated)	inconclusive: 29.1 µM [activator, single point]	
Cc1ccc(C(C)NC(=O)c2ccc3c(c2)OCCO3)cc1C (configuration not stated)	inconclusive: 23.1 µM [activator, single point]	
CC12CCC(C(=O)NNC(=O)c3ccccc3)(OC1=O)C2(C)C (configuration not stated)		inconclusive: -30.8% [activator]
Cc1ccc(-c2nnc(SCC(=O)Nc3ccc(S(=O)(=O)N4CCCCCC4)cc3)o2)cc1	inconclusive: 18.4 µM [activator, single point]	
COc1ccc(CNC(=O)C2CC(C)=C(C)CC2C(=O)O)cc1OC (configuration not stated)	inconclusive: 23.1 µM [activator, single point]	
COC(=O)c1sccc1-c1ccc(C(=O)Nc2ccccc2)o1	inactive	
CN(CC(=O)NC(=O)Nc1ccccc1F)Cc1ccccc1F	inconclusive: 18.4 µM [activator, single point]	
CC1CCCCN1C(=O)Cn1cnc2cc([N+](=O)[O-])ccc2c1=O (configuration not stated)	inconclusive: 29.1 µM [activator, single point]	
Cc1nc(N2CCC(C)CC2)c2c(C)c(C(=O)Nc3ccc(C(F)(F)F)cc3)sc2n1	inconclusive: 23.1 µM [activator, single point]	
CCOC(=O)c1ccccc1NC(=O)CSc1nc2ccccc2c(=O)n1CCCN1CCOCC1	active: 13 µM	
Cc1ccc(S(=O)(=O)N[C@@H](C)C(=O)OCC(=O)N2c3ccccc3NC(=O)C2(C)C)cc1	inactive	
Nc1ccccc1NC(=O)c1ccccc1	inactive	
O=C(NNC(=S)NCc1ccccc1)c1ccc2c(c1)OCO2	inactive	
CC(C)CCN1CCN(Cc2nc(-c3ccccc3)cs2)CC1CCO (configuration not stated)	inconclusive: 2.91 µM [activator, partial curve, poor fit]	
CNc1nc(C)c(C(=O)OCc2ccccc2)s1	inconclusive: 20.6 µM [activator, partial curve, poor fit]	
Cc1cc(C)nc(/N=C(\N)Nc2ccc3c(c2)OCCO3)n1	inconclusive: 18.4 µM [activator, single point]	
CC(C#N)(CCc1ccccn1)CCc1ccccn1	inactive	
COc1cccc(OCC(=O)Nc2ccccc2-c2ccccc2)c1	inconclusive: 23.1 µM [activator, single point]	
